Measured values from PubChem BioAssay AID686979 (National Center for Advancing Translational Sciences (NCATS), 2013).
The whole screen tested about 420,000 compounds, of which about 50,000 (12%) were called active. The inconclusive results got no clear call from the source; some entries with a clear call stand among them for comparison. Calls come from the whole dose curve; as a rule, active = well fitted inhibition curve with a large enough effect; inconclusive = small, poorly fitted or top-dose-only effect; inactive = flat fitted curve, though single readings scatter. Potencies of inconclusive entries are left out as doubtful fits.

Assay: qHTS for Inhibitors of human tyrosyl-DNA phosphodiesterase 1 (TDP1): qHTS in cells in presence of CPT; note: nearly all actives have a fitted effect of over 55% in size
Conditions: chicken DT40 Tdp1-/-;hTDP1 cells + 20 nM CPT, ATP luminescence, 48 h; activity change, negative = growth inhibition: at 46.2 µM (top of the series)
How it was run: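 Chicken DT40 Tdp1-/- cells stably complemented with human TDP1 were seeded at 400 cells/well in medium containing 20 nM camptothecin, exposed to pin-transferred compounds, and grown at 37 °C for at least 48 hr. Viability was read as ATP luminescence.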
% is set by controls: 0 for no effect and ±100 for the full control effect; potency is the fitted concentration of half-maximal effect; tags give direction and shape of the fitted curve.

Structure (SMILES) | Potency | activity change, negative = growth inhibition
CCCc1cc(-c2nc(N)ncc2-c2csc(C)n2)c(O)cc1OC | inconclusive [inhibitor, single point] | –
COc1cc(/C=N/NC(=O)c2cc(-c3ccccc3)nc3ccccc23)cc(OC)c1O | inconclusive [inhibitor, full curve] | –
COc1ccccc1C(=O)NC(CCSC)C(=O)N1CCC(Cc2ccccc2)CC1 (stereo not given) | active: 14.6 µM | –
CC(C)C(=O)c1cn(CC(=O)N2CCCc3ccccc32)c2ccccc12 | inconclusive [inhibitor, single point] | –
CC(=O)Cn1ncc(Br)c(Br)c1=O | active: 5.8 µM | –
Cc1cccc(NC(=O)c2ccc(C(=O)c3ccccc3)cc2)n1 | inconclusive [inhibitor, single point] | –
C=CCn1c(O)c(N=NC(=S)Nc2ccc(OC)cc2)c2ccccc21 | active: 3.66 µM | –
CC(C)C(=O)NCC1CCC2(CCN(Cc3ccc(-c4cccc(Cl)c4)o3)CC2)O1 (stereo not given) | – | inactive: -24.3%
Cc1ccc2c(c1)cc(CN(Cc1ccc3c(c1)OCO3)C(=O)c1ccccc1)c1nnnn12 | inconclusive [inhibitor, single point] | –
Cc1ccc(-n2ncc(C(=O)NCCN3CCN(C)CC3)c2C2CCN(C(=O)OC(C)(C)C)CC2)cc1C | inconclusive [inhibitor, single point] | –
CCOc1ccc(NS(=O)(=O)c2ccc3c(c2)CCN3C(=O)C2CCC2)cc1 | inconclusive [inhibitor, single point] | –
Cc1cc2ccccn2c1C(=O)c1ccc(Cl)cc1 | – | inactive: -28.1%
COc1ccc(-c2cc(NC(C)=O)c3ncc(-c4cc(OC)c(OC)c(OC)c4)n3c2)cn1 | active: 2.59 µM | –
CC(C)(C)c1ccc(C(=O)NCc2nnc(SCC(=O)N3CCCc4ccccc43)n2-c2ccccc2)cc1 | inconclusive [inhibitor, single point] | –
COc1ccc(NC(=O)COc2ccc(/C=C/c3cc[n+](C)cc3)cc2OC)cc1 | inconclusive [inhibitor, single point] | –
CSc1nc2[nH]c3c(c2c2nnnn12)CCCC3 | inconclusive [inhibitor, partial curve] | –
CCN1CCN(c2ccc(NC(=O)c3ccc4c(c3)[nH]c(=O)n4Cc3ccc(F)cc3)cc2)CC1 | active: 18.4 µM | –
CCn1cc(/C=N\NC(=O)c2cc(-c3ccccc3OC)nc3ccccc23)c(C)n1 | inconclusive [inhibitor, single point] | –
CCCNCC1C(Oc2ccc(Cl)cc2Cl)C(=O)N1c1cccc(C)c1C (stereo not given) | inconclusive [inhibitor, single point] | –
CCOc1ccc(C(=O)/C=C/Nc2ccc(S(=O)(=O)N=C(N)N)cc2)cc1 | inconclusive [inhibitor, single point] | –
S=C(Nc1ccccn1)c1ccccn1 | active: 0.92 µM | –
Cc1ccc2c(C)nc(Nc3nc(CSc4nnnn4-c4ccccc4)cc(=O)[nH]3)nc2c1 | active: 5.8 µM | –
CCCN(CCC)C(=O)CC(c1ccc(F)cc1)c1ccco1 (stereo not given) | inconclusive [inhibitor, single point] | –

Structure (SMILES) | Potency | activity change, negative = growth inhibition
CCn1c(SCC(=O)NCc2ccccc2)nnc1-c1c[nH]c2ccccc12 | inconclusive [inhibitor, partial curve, poor fit] | –
CN1C(=O)CC(c2cn(Cc3ccccc3)c3ccccc23)C1=O (stereo not given) | – | inactive: -0.11%
Oc1ccc(N2CCN(c3ncnc4sc5c(c34)CCC5)CC2)cc1 | active: 23.1 µM | –
CCOc1ccc(CNC(=O)Cn2c(=O)c3cccn3c3cccnc32)cc1 | – | inactive: -11.6%
CCc1cc2c(SCC(=O)N3CC(=O)Nc4ccccc43)ncnc2s1 | inconclusive [inhibitor, single point] | –
CCOC(=O)c1cc(C#N)c(SC)nc1-c1ccccc1 | inconclusive [inhibitor, partial curve] | –
CN1C(=O)c2cccc(NCCCCCCN3C(=O)c4ccccc4C3=O)c2C1=O | active: 20.6 µM | –
O=C(Cn1c(=O)n(Cc2ccccc2)c(=O)c2ccccc21)NCc1ccco1 | inconclusive [inhibitor, single point] | –
Cc1cc(C)c(C#N)c(SCC(=O)NC(C)(C)C)n1 | – | inactive: 11.4%
COc1ccc(Cc2noc(CN3CCN(Cc4cccc(Cl)c4)CC3)n2)cc1OC | inconclusive [inhibitor, single point] | –
OCCN1CCN(c2cc(-c3ccc(CO)cc3)nc3ccnn23)CC1 | – | inactive: -1.51%
O=C(Nc1cccc(-c2cnc3ccccc3n2)c1)C1CC(=O)N(c2ccccc2)C1 (stereo not given) | active: 20.6 µM | –
O=C(NC(=S)NNC(=O)c1ccc(Cl)cc1Cl)c1cccnc1 | inconclusive [inhibitor, single point] | –
CC(C)Cc1cc(C(C)(C)C)ccc1OC(=S)N(C)C | inconclusive [inhibitor, single point] | –
CCCCNc1c(-c2cccc(-c3ccc(OC)cc3)c2)nc2ccc(C)cn12 | active: 23.1 µM | –
N#Cc1c(-n2cccc2/C=N/O)sc2c1CCCC2 | inconclusive [inhibitor, partial curve] | –
Cc1nn(-c2ccccc2)c2c1N(CC(=O)N1CCN(c3ccc(Cl)cc3)CC1)C(=O)CS2 | inconclusive [inhibitor, single point] | –
COc1cc(OC)cc(C(=O)N2CCN(C(=O)c3cccc(F)c3)CC2)c1 | inconclusive [inhibitor, single point] | –
Cc1nn(-c2ccccc2)c2c1N(CCCC(=O)NC(C)c1ccccc1)C(=O)CS2 (stereo not given) | active: 14.6 µM | –
Cc1cccc(N/C(N)=N/c2nc(C)c(Cc3ccccc3)c(=O)[nH]2)c1 | inconclusive [inhibitor, single point] | –
O=C(NCCS(=O)(=O)N1CCN(c2ccccc2)CC1)C12CC3CC(CC(C3)C1)C2 | active: 25.9 µM | –
CSCC[C@H](NC(=O)OC(C)(C)C)C(=O)NCC1CCC(C(=O)N[C@@H](Cc2ccccc2)C(=O)O)CC1 (stereo not given in full) | – | inactive: 12.4%
